Drawing on publication PMC12136788, this text covers binding signal for 22 molecules.

First the molecules themselves.
T1: UNK ZnF1-3 (human, UniProt Q9C0B0 31-174)
T1 sequence: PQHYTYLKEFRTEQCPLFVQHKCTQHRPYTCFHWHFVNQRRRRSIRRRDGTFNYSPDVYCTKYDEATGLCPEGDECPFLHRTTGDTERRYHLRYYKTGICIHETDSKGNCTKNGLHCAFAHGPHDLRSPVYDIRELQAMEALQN

B1: chr7:28111804:28111805:-_ENSMUSG00000040488_ENSMUST00000121175|mus_hu|FALSE|FALSE (ssRNA)
RNA: GGGAGUUCUACAGUCCGACGAUCAGAGUCGCAAGCGCAGGUGUAGCCGCUGGGCCGGGAAAUGCAGCGUCCUGGGCCGCAGACCUGGGGGUUGCGCUGACACAUGCCGGAGGAGGGACCUGAUUCAGGAAUCUCAGGACCAGUCAACAGAGGAUUGAGCAUCA
B2: chr3:51261291:51261292:+_ENSMUSG00000063273_ENSMUST00000029303|mus_mus|FALSE|FALSE (ssRNA)
RNA: GGGAGUUCUACAGUCCGACGAUCUUCAGCCUCUUUAAUCAGGUUGGCUUUUAACAUGUAUUUUGCACACUUGGAAUUAAUAAAUCUGUCUGCUGUGUCCAGGGCCUGGGCUUCAUCCAUCCACCUGGCAGCUUCUUUAAUAUUCAACAGAGGAUUGAGCAUCA
B3: chr1:38108737:38108738:+_ENSMUSG00000026083_ENSMUST00000027252|mus_mus|FALSE|FALSE (ssRNA)
RNA: GGGAGUUCUACAGUCCGACGAUCUUUGAAGGAAGGGCAAACUUUAAAACAGCAGCCAAGUCUUAAAGGAAGGGUGGGUGAGUGCAGGCACGCUGGACUGUGGGGCGGGGAACUGACCACUGUCAAACCAGUGUAAGUUGCUUGCAACAGAGGAUUGAGCAUCA
B4: 32351617_32351737_1693_CDS_ENSMUSG00000024002_ENSMUST00000121285|mouse|control|control (ssRNA)
RNA: GGGAGUUCUACAGUCCGACGAUCAGAGUCGUCAGUGGAACUGUCGCUGUCGGAAGAACUGUCGCUGCUGCUGUCACUAGAUGAGGGUGGGGCUACCACCUUUGUAGGGGGUGGCACUGCAGGAGAGGACACUGUAACAACUGGCAACAGAGGAUUGAGCAUCA
B5: chr2:29769918:29769919:+_ENSMUSG00000026790_ENSMUST00000113756|mus_hu|FALSE|FALSE (ssRNA)
RNA: GGGAGUUCUACAGUCCGACGAUCCUGCAAAUGCCCACGCAUGGACUCCAUGGAUUUAGAAAGCUCAGAGGCUGUCUUUGCUUGAGCCUUCUCACAUUGUAUUUCCUGAAGGAGCUCUUCCACCUCCUUGUCCUUGUCUUGCAGCAACAGAGGAUUGAGCAUCA
B6: 29192280_29192400_3777_3pUTR_ENSG00000120875_ENST00000240100|human|control|control (ssRNA)
RNA: GGGAGUUCUACAGUCCGACGAUCUGUUGUCUCUAAAUGGUUCCAUUGUCUGGGAACUGAAACCCUCCAUGCUUCACCCUGAACUGUUAUUUCUAGAGGAAGCAGGGAGCCUCUGGCUCUUCUAAAAAUUGCCAGUGGGAGCUCCAACAGAGGAUUGAGCAUCA
B7: chr16:94690093:94690094:+_ENSMUSG00000040785_ENSMUST00000117648|mus_hu|mus_mus_mus_hu_True|58_78 (ssRNA)
RNA: GGGAGUUCUACAGUCCGACGAUCGGGCUGGGAUGACGGACACACAGCCUCGAUUCCGGUAAAAAAAAGUCUUAGUCAAUACUAAUUAAAAAGUGUUAAUGAUUUUUGAAAAUCAGAUUACAUCUAUAAAAGAUGAAAAGCAAACAACAGAGGAUUGAGCAUCA
B8: chr4:81936313:81936314:-_ENSMUSG00000008575_ENSMUST00000064770|mus_hu|motif|central (ssRNA)
RNA: GGGAGUUCUACAGUCCGACGAUCCCCACAAAAAGUACCCAAAGAACGUUAUCCUCCAACCGGGCACAAUAAAACCUUCACGGACAUUCUGGCCCAGUCUGGGGUUGAUCCCAGAGGCCUGAACUCUAGAAAUUAAGUAACUGUCAACAGAGGAUUGAGCAUCA
B9: chr7:140404665:140404666:+_ENSG00000090266_ENST00000247866|hu_hu|hu_hu_hu_mus_False|58_108 (ssRNA)
RNA: GGGAGUUCUACAGUCCGACGAUCUGCGUACAGAGUGCCAGAGAGUUUACAGUGUCAGUCCUCGUCAUCAGGAGGGAUACCUAAUUCUUCAUCUGUCCACUGUGAAGGAUCUGGAUAUGAAAAGUGACCCAGCACAGCAUCCGACAACAGAGGAUUGAGCAUCA
B10: 54187784_54189223_636_3pUTR_ENSMUSG00000021474_ENSMUST00000021930|mouse|control|control (ssRNA)
RNA: GGGAGUUCUACAGUCCGACGAUCCCUUUGUCUCAUCAGUGGGAUGUUAAUGCAGUUAGCAGCAGCUACAGCAGCGAAGGGAACAAAACGUCCUAUCAGUGGGGAGACACGCUUGGUUAAGGCAUUGAGUCCUAGGGCCGUUGCCAACAGAGGAUUGAGCAUCA
B11: chr12:21796937:21796938:-_ENSG00000111716_ENST00000350669|hu_mus|FALSE|FALSE (ssRNA)
RNA: GGGAGUUCUACAGUCCGACGAUCCACGAUGAUGGUGCAGUCAGGGCUGUACUUGACGAUCUGAGGAAUGAUGAACUUGAACACGUUGACAUUUCUCUGCACCAGGUUGAGCCGACUCUCCCCCUCCUGCUGGCGGACUCCUGCCAACAGAGGAUUGAGCAUCA
B12: 47614209_47621638_942_CDS_ENSG00000102893_ENST00000566044|human|control|control (ssRNA)
RNA: GGGAGUUCUACAGUCCGACGAUCAGUUUGCCUGUUGCGAUUGUGAGCAUCGAGAUCCACAAAUAUAACUGACCACGAACAGCCCUGGUUGCCAAAAAGGUUGAAUCCAUUAAUUGCUUCUAGAGCUGCUUUUGCUAAACCAACCAACAGAGGAUUGAGCAUCA
B13: 49672327_49672447_664_CDS_ENSG00000102935_ENST00000562871|human|control|control (ssRNA)
RNA: GGGAGUUCUACAGUCCGACGAUCUUUGUGGGCCUGCAUGUGGCUCUGCAGCGAGCUGGUGGAGGAGAAGCCGCGCUUGCACACAGUGCACUUGAAGGGCUUGCUGGAGCUGUGGGUCUUCAGGUGGAUCUUGAGGUGGUCGCUCAACAGAGGAUUGAGCAUCA
B14: chr4:140265382:140265383:+_ENSG00000164134_ENST00000296543|hu_mus|motif|central (ssRNA)
RNA: GGGAGUUCUACAGUCCGACGAUCUUCUCUAUAAAGACCUGCUUCCCGAAGAACUUGAUUCUGAUAUAAGAGGAGUUCACGGUAUUCAUAAUCCACUUUAUCAGGAGAUGUCUGCUGUGUUUUCCUAAACUCUUCUAAAAUUUUCAACAGAGGAUUGAGCAUCA
B15: chr17:8508246:8508247:-_ENSG00000133026_ENST00000269243|hu_mus|FALSE|FALSE (ssRNA)
RNA: GGGAGUUCUACAGUCCGACGAUCAUACAUUUCAAUAAUAUUCUCAGAGUAAAUUGGAAGGUUCUUGUAAGGAUUUAUCACCACACAGAAGAGUCCAGAGUAAGUAUAGAUAAGUCCUGAAUAGUAGCGGUCCUUCAAAUUAUGCAACAGAGGAUUGAGCAUCA
B16: 105924449_105924569_676_CDS_ENSG00000135966_ENST00000393359|human|control|control (ssRNA)
RNA: GGGAGUUCUACAGUCCGACGAUCGUUGACCAGGCUGAUGGAGUUGUCACACAGCACCAGCAGCCUGUUGAGUGCUGAGGCCGCACGCAGCUCGUUCACGGGCUUCUUGAAGCCCAAGUGUCUCUGCAGCUGUUUGGUGGCAGUCAACAGAGGAUUGAGCAUCA
B17: chr4:82449818:82449819:-_ENSMUSG00000028403_ENSMUST00000030110|mus_hu|FALSE|FALSE (ssRNA)
RNA: GGGAGUUCUACAGUCCGACGAUCUACAUUUCUAUGUUUUGUAAUAAAUUGGUAAUUUCAAAGUAACAGCUUUUCCAAUUCUAAGGAAUUACUCUGCCAAAAUAAGGUUUAAAAUAAAAUACAUAAAAUGGCUUAGUUUAUCCUCAACAGAGGAUUGAGCAUCA
B18: chr1:87369078:87369079:-_ENSG00000183291_ENST00000370554|hu_hu|motif|central (ssRNA)
RNA: GGGAGUUCUACAGUCCGACGAUCCAGGUUGAACUGUCCGAGAAGAUCACAAGAGCUGCAAAGCAAGUUGCUAGAAAAGCCGGACUCUCUGCAUGCCUCCGAUGAAAACUCUGCCCCAAAAGCAGACACCGCUUGAAGCACAGUCAACAGAGGAUUGAGCAUCA
B19: chr3:58389949:58389950:+_ENSMUSG00000075700_ENSMUST00000107924|mus_mus|FALSE|FALSE (ssRNA)
RNA: GGGAGUUCUACAGUCCGACGAUCCAGGAAGAAAACCAUCAUACAUGCAUAAACCUUAUUUUCUUGGCCCCACUGCCAGAUGCUAGGAGCUUGCAUGCCGAAAAAAGCAAAAGGAUCUUUGCCAACAAUUAUUAAGCCUAUUAACAACAGAGGAUUGAGCAUCA
B20: chr12:79978091:79978092:+_ENSMUSG00000021116_ENSMUST00000071230|mus_mus|FALSE|FALSE (ssRNA)
RNA: GGGAGUUCUACAGUCCGACGAUCGCUCUCCAGCUGCUCAUCCUUGGUAUAUUCUAAUACCUCAGCAACAUGGCGAAGAAUGCUAUAAACAGUUUUGGAUUUUGUGAAUUUGUCCUCACAUUUGAUUGCUUCCUCUGGAGAAACCAACAGAGGAUUGAGCAUCA
B21: chr19:37619525:37619526:+_ENSG00000197050_ENST00000337995|hu_mus|FALSE|FALSE (ssRNA)
RNA: GGGAGUUCUACAGUCCGACGAUCUUCCUUACAGUCCAAAGAUUUGCCACGGAUAUGAAUUCUCUGAUGUCGCAUUAGUUGAGACUCACGUGUAAAGGCCUUUUCACAUUCUUUACACUGAUACGGUUUCUCGCCAGUAUGAACCAACAGAGGAUUGAGCAUCA
B22: chr12:52885226:52885227:-_ENSMUSG00000035247_ENSMUST00000042052|mus_mus|motif|central (ssRNA)
RNA: GGGAGUUCUACAGUCCGACGAUCUUUGAAGACAUUUAUUCUUUCUACCAGUUGACUACAAUCUUGCUUCAUAUCCAAAUCGGUACGGUUGUUUAGAACAGUAAGAAGUGCCUGGACUAAACCACUACUACACAUUUCAUACGGCAACAGAGGAUUGAGCAUCA

This is one part of the list.

This test addresses T1, UNK ZnF1-3. Briefly: nsRBNS (natural sequence RNA bind-n-seq); RBNS binding buffer (assumed for nsRBNS): 25 mM Tris pH 7.5, 150 mM KCl, 3 mM MgCl2, 0.01% Triton X-100, 500 ug/ml BSA, 20 U/ml SUPERase-In, 4 C; UNK is unkempt and MSI1 is Musashi-1; names of the RNAs are library labels; protein concentration not given here; high values mean tight binding.
The molecule B1 came in with a binding signal of 0.903 enrichment R. Turning to B2, the binding signal was determined as 0.86 enrichment R. Molecule B3 returned a binding signal of 1.65 enrichment R. Take B4: the binding signal was determined as 1.4 enrichment R. For B5, the binding signal is 0.454 enrichment R.

Take B6: the binding signal was 0.773 enrichment R.

Take B7: the binding signal stood at 2.07 enrichment R. The molecule B8 yielded a binding signal of 1.13 enrichment R.

B9 had a binding signal of 0.929 enrichment R. In turn, B10 showed a binding signal of 1.3 enrichment R. In the case of B11, the binding signal came to 0.9 enrichment R.

Take B12: the binding signal came to 1.22 enrichment R. B13 showed a binding signal of 0.822 enrichment R. With B14, the binding signal stood at 1.3 enrichment R.

Consider B15, for which the binding signal was found to be 1.79 enrichment R. For the molecule B16, the binding signal stood at 0.399 enrichment R. For the molecule B17, the binding signal was 0.946 enrichment R.

Regarding B18, the binding signal was 0.86 enrichment R.

B19 displayed a binding signal of 1.29 enrichment R. Consider B20, for which the binding signal was found to be 0.548 enrichment R. Regarding B21, the binding signal was found to be 0.675 enrichment R.

As to B22, the binding signal was determined as 0.791 enrichment R.
